Measured values from the supplement of paper PMC8728848.
Some of the results follow.

Legend:
Assay in all cases: glycan array binding signal (z-score within array); higher = stronger binding
Conditions in all cases: glycan notation: IUPAC condensed, linker removed; mutation: G182A
[1] = biological target: GlcNAc(b1-3)Gal(b1-4)GlcNAc(b1-3)Gal(b1-4)GlcNAc
Outline: (§1)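 From the Consortium for Functional Glycomics database, 3228 arrays were curated, keeping only those whose protein sequence was available. Binding is given as a within-array Z-score averaged across arrays sharing a protein sequence and across linkers. Negative Z-scores can be read as non-binding.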

[2] = biological target: GlcNAc(b1-3)GalNAc
Outline: as §1

[3] = biological target: GlcNAc(b1-3)Man
Outline: as §1

[4] = biological target: GlcNAc(b1-3)[GlcNAc(b1-4)][GlcNAc(b1-6)]GlcNAc
Outline: as §1

[5] = biological target: GlcNAc(b1-3)[GlcNAc(b1-6)]Gal(b1-4)GlcNAc
Outline: as §1

[6] = biological target: GlcNAc(b1-3)[GlcNAc(b1-6)]GalNAc
Outline: as §1

[7] = biological target: GlcNAc(b1-4)Gal(b1-4)GlcNAc
Outline: as §1

[8] = biological target: GlcNAc(b1-4)GlcNAc
Outline: as §1

[9] = biological target: GlcNAc(b1-4)GlcNAc(b1-4)GlcNAc
Outline: as §1

[10] = biological target: GlcNAc(b1-4)GlcNAc(b1-4)GlcNAc(b1-4)GlcNAc(b1-4)GlcNAc
Outline: as §1

[11] = biological target: GlcNAc(b1-4)GlcNAc(b1-4)GlcNAc(b1-4)GlcNAc(b1-4)GlcNAc(b1-4)GlcNAc
Outline: as §1

[12] = biological target: GlcNAc(b1-4)[GlcNAc(b1-6)]GalNAc
Outline: as §1

[13] = biological target: GlcNAc(b1-6)Gal(b1-4)GlcNAc
Outline: as §1

[14] = biological target: GlcNAc(b1-6)GalNAc
Outline: as §1

[15] = biological target: GlcNAc3Prop(b1-4)GlcNAc
Outline: as §1

[16] = biological target: GlcNAc6S(b1-3)Gal(b1-4)GlcNAc
Outline: as §1

[17] = biological target: Kdn(a2-3)Gal(b1-3)GalNAc
Outline: as §1

[18] = biological target: Kdn(a2-3)Gal(b1-3)GlcNAc
Outline: as §1

[19] = biological target: Kdn(a2-3)Gal(b1-4)Glc
Outline: as §1

[20] = biological target: Kdn(a2-3)Gal(b1-4)GlcNAc
Outline: as §1

[21] = biological target: Kdn(a2-3)Gal(b1-4)[Fuc(a1-3)]GlcNAc
Outline: as §1

[22] = biological target: Kdn(a2-6)Gal(b1-4)GlcNAc
Outline: as §1

[23] = biological target: Man(a1-2)Man(a1-2)Man(a1-3)Man
Outline: as §1

[24] = biological target: Man(a1-2)Man(a1-2)Man(a1-6)[Man(a1-3)]Man
Outline: as §1

[25] = biological target: Man(a1-2)Man(a1-3)Man
Outline: as §1

[26] = biological target: Man(a1-2)Man(a1-3)[Man(a1-2)Man(a1-6)]Man
Outline: as §1

[27] = biological target: Man(a1-2)Man(a1-3)[Man(a1-2)Man(a1-6)]Man(a1-6)[Man(a1-2)Man(a1-2)Man(a1-3)]Man
Outline: as §1

[28] = biological target: Man(a1-2)Man(a1-3)[Man(a1-2)Man(a1-6)]Man(a1-6)[Man(a1-2)Man(a1-2)Man(a1-3)]Man(b1-4)GlcNAc(b1-4)GlcNAc
Outline: as §1

[29] = biological target: Man(a1-2)Man(a1-3)[Man(a1-6)]Man(a1-6)[Man(a1-2)Man(a1-3)]Man(b1-4)GlcNAc(b1-4)GlcNAc
Outline: as §1

[30] = biological target: Man(a1-2)Man(a1-6)[Man(a1-3)]Man(a1-6)[Man(a1-2)Man(a1-2)Man(a1-3)]Man
Outline: as §1

[31] = biological target: Man(a1-2)Man(a1-6)[Man(a1-3)]Man(a1-6)[Man(a1-2)Man(a1-2)Man(a1-3)]Man(b1-4)GlcNAc(b1-4)GlcNAc
Outline: as §1

[32] = biological target: Man(a1-3)[Man(a1-6)]Man
Outline: as §1

[33] = biological target: Man(a1-3)[Man(a1-6)]Man(a1-6)[Man(a1-2)Man(a1-3)]Man(b1-4)GlcNAc(b1-4)GlcNAc
Outline: as §1

[34] = biological target: Man(a1-3)[Man(a1-6)]Man(a1-6)[Man(a1-3)]Man
Outline: as §1

[35] = biological target: Man(a1-3)[Man(a1-6)]Man(a1-6)[Man(a1-3)]Man(b1-4)GlcNAc(b1-4)GlcNAc
Outline: as §1

[36] = biological target: Man(a1-3)[Man(a1-6)]Man(b1-4)GlcNAc(b1-4)GlcNAc
Outline: as §1

[37] = biological target: Man(a1-6)Man
Outline: as §1

B1: Gal 3 (Homo sapiens), P17931 (protein)
chain: MADNFSLHDALSGSGNPNPQGWPGAWGNQPAGAGGYPGASYPGAYPGQAPPGAYPGQAPPGAYHGAPGAYPGAPAPGVYPGPPSGPGAYPSSGQPSAPGAYPATGPYGAPAGPLIVPYNLPLPGGVVPRMLITILGTVKPNANILDFQRGNDVAFHFNPRFNENNRRVIVCNTKLDNNWAREERQSVFPFESGKPFKIQVLVEPDHFKVAVNDAHLLQYNHRVKKLNEISKLGISGDIDLTSASYTMI
In the case of B1, the “glycan array binding signal (z-score)” value [1] is reported as 4.53, the “glycan array binding signal (z-score)” value [2] is reported as -0.194 and the “glycan array binding signal (z-score)” value [3] is reported as -0.152. The “glycan array binding signal (z-score)” value [4] was -0.181, the “glycan array binding signal (z-score)” value [5] was -0.142 and the “glycan array binding signal (z-score)” value [6] was -0.171. For the same binder, the “glycan array binding signal (z-score)” value [7] was -0.174, the “glycan array binding signal (z-score)” value [8] was -0.192 and the “glycan array binding signal (z-score)” value [9] was -0.195. The “glycan array binding signal (z-score)” value [10] was -0.19, the “glycan array binding signal (z-score)” value [11] was -0.192 and the “glycan array binding signal (z-score)” value [12] was -0.194. The “glycan array binding signal (z-score)” value [13] was -0.195, the “glycan array binding signal (z-score)” value [14] was -0.185 and the “glycan array binding signal (z-score)” value [15] was -0.182. The “glycan array binding signal (z-score)” value [16] was -0.192, the “glycan array binding signal (z-score)” value [17] was -0.188 and the “glycan array binding signal (z-score)” value [18] was -0.167. For the same binder, the “glycan array binding signal (z-score)” value [19] was -0.177, the “glycan array binding signal (z-score)” value [20] was -0.198 and the “glycan array binding signal (z-score)” value [21] was -0.189. The “glycan array binding signal (z-score)” value [22] was -0.18, the “glycan array binding signal (z-score)” value [23] was -0.149 and the “glycan array binding signal (z-score)” value [24] was -0.194. The “glycan array binding signal (z-score)” value [25] was -0.189, the “glycan array binding signal (z-score)” value [26] was -0.189 and the “glycan array binding signal (z-score)” value [27] was -0.184. For the same binder, the “glycan array binding signal (z-score)” value [28] was -0.191, the “glycan array binding signal (z-score)” value [29] was -0.19 and the “glycan array binding signal (z-score)” value [30] was -0.198. The “glycan array binding signal (z-score)” value [31] was -0.184, the “glycan array binding signal (z-score)” value [32] was -0.151 and the “glycan array binding signal (z-score)” value [33] was -0.151. For the same binder, the “glycan array binding signal (z-score)” value [34] was -0.157, the “glycan array binding signal (z-score)” value [35] was -0.191 and the “glycan array binding signal (z-score)” value [36] was -0.191. The “glycan array binding signal (z-score)” value [37] was -0.19.
